Test results as given in paper PMC4336329 (PLoS ONE, 2015).
About 2,200 (0.71%) of roughly 310,000 compounds showed an effect of 50% or more. The effect is printed as a negative number. This is one part of the list.

Molecular target: human ether-à-go-go-related gene (hERG) potassium channel (human, UniProt Q12809)
Experiment: primary screen, population patch clamp on CHO cells stably expressing hERG

Sequence of human ether-à-go-go-related gene (hERG) potassium channel (Q12809 whole entry, looked up): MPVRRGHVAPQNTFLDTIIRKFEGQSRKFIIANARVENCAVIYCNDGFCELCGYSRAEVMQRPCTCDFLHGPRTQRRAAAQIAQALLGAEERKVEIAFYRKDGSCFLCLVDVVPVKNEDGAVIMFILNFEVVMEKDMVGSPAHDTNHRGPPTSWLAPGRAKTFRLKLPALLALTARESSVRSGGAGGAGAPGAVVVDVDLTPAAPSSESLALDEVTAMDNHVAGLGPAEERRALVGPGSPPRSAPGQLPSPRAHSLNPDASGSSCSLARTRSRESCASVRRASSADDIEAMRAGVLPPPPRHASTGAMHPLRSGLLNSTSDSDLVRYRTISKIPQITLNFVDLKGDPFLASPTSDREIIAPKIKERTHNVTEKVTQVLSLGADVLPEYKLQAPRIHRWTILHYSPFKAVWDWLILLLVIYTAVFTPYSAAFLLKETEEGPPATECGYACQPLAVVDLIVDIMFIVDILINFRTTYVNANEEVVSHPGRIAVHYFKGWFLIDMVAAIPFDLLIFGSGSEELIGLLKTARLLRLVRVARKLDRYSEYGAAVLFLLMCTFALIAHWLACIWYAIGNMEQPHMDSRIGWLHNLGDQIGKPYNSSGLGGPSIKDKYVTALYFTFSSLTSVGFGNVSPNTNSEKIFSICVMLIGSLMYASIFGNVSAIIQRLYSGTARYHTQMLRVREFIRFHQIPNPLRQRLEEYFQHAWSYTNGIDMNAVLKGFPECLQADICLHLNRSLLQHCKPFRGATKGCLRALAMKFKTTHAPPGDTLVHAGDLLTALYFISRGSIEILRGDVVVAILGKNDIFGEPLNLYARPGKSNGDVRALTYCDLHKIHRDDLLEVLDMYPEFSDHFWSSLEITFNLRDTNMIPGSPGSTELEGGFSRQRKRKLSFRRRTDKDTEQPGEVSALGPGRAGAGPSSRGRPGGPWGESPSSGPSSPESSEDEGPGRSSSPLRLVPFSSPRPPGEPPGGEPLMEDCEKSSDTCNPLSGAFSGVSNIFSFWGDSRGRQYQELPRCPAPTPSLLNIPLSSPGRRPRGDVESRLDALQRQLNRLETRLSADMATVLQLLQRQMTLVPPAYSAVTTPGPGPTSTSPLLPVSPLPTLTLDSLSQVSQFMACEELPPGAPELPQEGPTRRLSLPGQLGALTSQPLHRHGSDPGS

| Structure (SMILES) | hERG current change (%, negative = inhibition) at 1uM |
| --- | --- |
| Cc1ccc2c(c1)C1CC(C)(O2)N(c2cccc(C(=O)NC3CCN(Cc4ccccc4)CC3)c2)C(=O)N1 (stereo not shown) | 13.7% |
| CCN(CC)C(=O)CSc1nc2ccccc2n1CC(=O)N1CCN(c2ccccc2OC)CC1 | 5.29% |
| Nn1c(SCC(=O)Nc2nccs2)nnc1-c1cccnc1 | 1.85% |
| Cc1ccc(CN2CCc3[nH]c(=S)[nH]c(=O)c3C2)cc1 | 14.5% |
| CCOc1ccc(Cl)cc1S(=O)(=O)NCc1ccccn1 | 4.87% |
| CCn1c(CC(=O)Nc2ccc(C)cc2)nnc1SCC(=O)N1CCOCC1 | -9.11% |
| Clc1cccc(-c2nn3c(Cn4cnc5ccccc54)nnc3s2)c1 | -8.98% |
| CC1(c2ccc([N+](=O)[O-])c(CS(=O)(=O)c3ccccc3)c2)OCCO1 | 12.8% |
| Cc1cccc(N2CC(C(=O)Nc3cccc(S(=O)(=O)N4CCCCC4)c3)CC2=O)c1C (stereo not shown) | 4.58% |
| NS(=O)(=O)c1ccc(CNC(=O)c2cc(-c3ccccn3)nc3ccc(Cl)cc23)cc1 | 9.6% |
| COc1ccc(-c2cc(C(=O)NCCCN3CCOCC3)on2)cc1OC | 12.7% |
| Cc1ncc(S(=O)(=O)c2ccccc2)c(-c2ccccc2Cl)n1 | 2.7% |
| COc1ccc(O[C@H]2C=C[C@@H](c3ccccc3)O[C@@H]2CO/N=C/C[C@@H]2C=C[C@H](OC(C)=O)[C@@H](COC(C)=O)O2)cc1 | 8.21% |
| O=C(Nc1ccc(Cl)cc1Cl)c1csc(-c2cccnc2)n1 | 8.29% |
| Cc1ccccc1C(=O)c1c[nH]c(C(=O)NCC2CCCO2)c1 (stereo not shown) | 6.32% |
| O=C(O)C1(c2ccccc2)CCC(Nc2ccccc2)C1 (stereo not shown) | 12.8% |
| C=C(C)CSc1nnc([C@@H](NC(=O)OC(C)(C)C)C(C)CC)o1 (stereo partly shown) | 7.67% |
| CCOC(=O)C1CCCN(CCC(=O)Nc2ccccc2C)C1.Cl (stereo not shown) | 11.3% |
| Cc1cc(C)cc(C(=O)NCC(=O)N2CCN(c3cccc(Cl)c3)CC2)c1 | 6.19% |
| O=S(=O)(NC1CCCCC1N1CCN(c2ccc(F)cc2)CC1)c1ccccc1 (stereo not shown) | 4.15% |
| Cc1c(NC(=O)COc2ncnc3ccccc23)c(=O)n(-c2ccccc2)n1C | 9.5% |
| Clc1ccccc1Cn1c(/C=C/c2ccco2)nc2ccccc21 | 24% |

| Structure (SMILES) | hERG current change (%, negative = inhibition) at 1uM |
| --- | --- |
| COC(=O)C(Cc1cnc(Cl)s1)(C(=O)OC)c1ccc([N+](=O)[O-])cc1 | -7.03% |
| COc1ccc(C(=O)NC2CC(C)(C)Cc3c2cnn3-c2ccccc2)cc1OC (stereo not shown) | 2.95% |
| COCCCNC(=O)Cn1ccc(N)nc1=O | 17% |
| O=C(NC1CCCC1)c1cccc(NC(=O)c2ccco2)c1 | 11.6% |
| Cc1cccc(C(=O)Oc2ccccc2C(=O)N2CCOCC2)c1 | 0.226% |
| CC(C)(C)c1ccc(C(=O)N/N=C2\C3CN4CCN(C3)CC2(c2ccccc2)C4)cc1 | 7.35% |
| COCCNC(=O)C(c1ccncc1)N(C(=O)c1sc(C)nc1C)c1cccc(C)c1 (stereo not shown) | 18.9% |
| CCCC(=O)Nc1ccc(C(=O)NNC(=O)c2ccco2)cc1 | 19.3% |
| COc1cc(C(=O)O)ccc1OC(C)=O | 13.2% |
| COc1cccc(-c2onc3ccc(C4(C)OCCO4)cc23)c1 | 12% |
| COc1cc(CCC(=O)OCC(=O)Nc2c(C)cccc2C(C)C)cc(OC)c1OC | 11.5% |
| CCOc1ccc(S(=O)(=O)N2CCOCC2)cc1NC(=O)C1=COCCO1 | 0.815% |
| O=C(CCN1C(=O)C2CC=CCC2C1=O)Nc1ccccc1Cl (stereo not shown) | 10.9% |
| CCOC(=O)c1sc(NC(=O)CN2CCN(c3ccccc3)CC2)nc1C | 11.8% |
| Cc1cc(Cl)ccc1OCC(=O)NC(=S)Nc1ccccc1N1CCOCC1 | 14.7% |
| CCOc1nc(NCCO)nc(Nc2cc(Cl)ccc2OC)n1 | 12.8% |
| Cc1ccc(-n2c3c(c(=O)[nH]c2=S)C(C(F)(F)F)(C(F)(F)F)NC(=O)N3)cc1 | -3.05% |
| COc1ccc(-n2ncc3c(NCC(C)C)ncnc32)cc1 | 6.4% |
| Cc1ccc(S(=O)(=O)N2CCC(=O)N(CCOCc3ccc(C(F)(F)F)cc3)CC2)cc1 | 1.04% |
| Cc1ccc(S(=O)(=O)c2nc(-c3ccccc3)oc2N2CCC(C(N)=O)CC2)cc1 | -4.34% |
| O=C(C1CCCN(S(=O)(=O)Cc2ccccc2)C1)N1CCc2ccccc21 (stereo not shown) | 4.67% |
